Reference: publication PMC4336329 (PLoS ONE, 2015)
Among all 310,000 compounds or so, about 14,000 (4.5%) showed an effect of 50% or more. The effect is printed as a negative number. Some of the results follow.

target: human ether-à-go-go-related gene (hERG) potassium channel (human, UniProt Q12809); assay: primary screen, population patch clamp on CHO cells stably expressing hERG
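Also: peak tail current of the secondary pulse compared with the same well before compound.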

human ether-à-go-go-related gene (hERG) potassium channel, sequence (Q12809 whole entry, looked up): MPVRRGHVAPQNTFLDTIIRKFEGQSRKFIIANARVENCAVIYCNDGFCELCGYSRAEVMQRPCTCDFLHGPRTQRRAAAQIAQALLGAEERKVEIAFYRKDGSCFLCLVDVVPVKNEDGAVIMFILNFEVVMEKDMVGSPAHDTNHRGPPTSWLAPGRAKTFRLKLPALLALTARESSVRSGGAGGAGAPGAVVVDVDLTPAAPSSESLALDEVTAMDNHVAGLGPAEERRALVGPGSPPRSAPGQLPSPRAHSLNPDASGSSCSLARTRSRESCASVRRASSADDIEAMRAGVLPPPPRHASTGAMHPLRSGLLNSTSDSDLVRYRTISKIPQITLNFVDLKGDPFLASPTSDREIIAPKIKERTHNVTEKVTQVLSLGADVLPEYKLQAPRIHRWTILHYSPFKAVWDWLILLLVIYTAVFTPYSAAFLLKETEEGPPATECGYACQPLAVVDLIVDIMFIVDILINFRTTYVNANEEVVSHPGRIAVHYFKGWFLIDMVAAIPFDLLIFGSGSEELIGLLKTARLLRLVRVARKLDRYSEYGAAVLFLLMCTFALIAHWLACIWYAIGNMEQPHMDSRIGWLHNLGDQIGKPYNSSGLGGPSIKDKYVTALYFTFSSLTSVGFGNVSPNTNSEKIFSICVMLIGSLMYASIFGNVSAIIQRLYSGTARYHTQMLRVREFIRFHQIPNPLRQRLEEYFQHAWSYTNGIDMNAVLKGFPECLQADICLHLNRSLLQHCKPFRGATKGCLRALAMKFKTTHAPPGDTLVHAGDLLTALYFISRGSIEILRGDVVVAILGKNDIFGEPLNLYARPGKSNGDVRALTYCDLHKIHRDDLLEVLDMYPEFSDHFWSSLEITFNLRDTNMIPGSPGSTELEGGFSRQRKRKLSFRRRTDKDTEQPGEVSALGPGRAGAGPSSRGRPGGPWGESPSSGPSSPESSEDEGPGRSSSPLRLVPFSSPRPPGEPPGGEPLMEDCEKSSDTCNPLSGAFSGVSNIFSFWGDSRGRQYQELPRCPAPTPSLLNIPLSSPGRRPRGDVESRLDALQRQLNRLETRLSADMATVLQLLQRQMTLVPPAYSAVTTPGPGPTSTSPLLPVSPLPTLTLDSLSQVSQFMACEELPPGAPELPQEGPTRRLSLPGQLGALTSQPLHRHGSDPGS

| SMILES | hERG current change (%, negative = inhibition) at 10uM |
| --- | --- |
| O=C(Cn1ncc(Cl)c(Cl)c1=O)NC1CCS(=O)(=O)C1 (stereo not drawn) | -3.46% |
| Br.CCCCn1c(=N)n(CCOc2ccc(C)cc2)c2ccccc21 | -73.1% |
| Cl.O=C1CCC(c2ccccc2)(C2CCN(Cc3ccccc3)CC2)C(=O)N1 (stereo not drawn) | -31.9% |
| C=C(C)CN=C1SC(C(=O)Nc2sc3c(c2C(=O)OC)CCC3)C(N)=C1C(N)=O (stereo not drawn) | 10.3% |
| O=C(COc1ccc2ccccc2c1)N1CCNCC1.O=C(O)C(F)(F)F | 1.37% |
| O=C(CSc1ccc2nnc(-c3cccnc3)n2n1)c1ccccc1 | -70% |
| CN(C/C(O)=C(\C#N)c1ccccc1)C1CCCCC1 | -0.409% |
| CNC(=O)c1ccccc1F | 9.08% |
| CCC(=O)Nc1ccccc1C(=O)N1CCN(Cc2ccccc2)CC1 | -1.1% |
| Cc1ccc(NC(=O)/C(C#N)=C/c2ccc(Sc3nc(C)cc(C)n3)o2)cc1 | 17.3% |
| CCCCC(=O)NC(c1ccccc1Cl)c1c(O)ccc2ccccc12 (stereo not drawn) | 1.58% |
| CCn1c2ccccc2c2cc(NC(=O)COC(=O)c3cc(OC)c(OC)cc3OC)ccc21 | -3.41% |
| O=C(O)C1CCCN1c1ncccn1 (stereo not drawn) | 0.459% |
| COc1ccc(NC(=O)c2cc(-c3ccccc3Cl)no2)cc1 | 3.62% |
| COc1ccc(NC(=O)/C(N=Nc2cc(S(=O)(=O)Nc3ccc(OC)cc3)ccc2OC)=C(\C)O)cc1 | 24.2% |
| COC(=O)c1ccc(NS(=O)(=O)c2cc3c4c(c2)CCC(=O)N4CCC3)cc1 | -9.1% |
| Cc1ccc(C(=O)Nc2ccc(S(=O)(=O)N3CCCC3)cc2)cc1 | 15.2% |
| C=C(C)CC1N(c2cccc(OC)c2)C(=O)C2C(C(=O)O)C3C=CC21O3 (stereo not drawn) | 3.93% |
| CCOC(=O)Cc1csc(NS(=O)(=O)c2ccc3c4c(cccc24)C(=O)N3CC)n1 | 18.4% |

| SMILES | hERG current change (%, negative = inhibition) at 10uM |
| --- | --- |
| COCCCNC(=O)c1ccc(-c2csc(C)n2)cc1 | 4.49% |
| Cc1ccsc1/C=C1\SC(N2CCOCC2)=NC1=O | -11.9% |
| COc1cccc(CCNC(=O)C2CCCN(c3ncnc4c3nc3n4CCCCC3)C2)c1OC (stereo not drawn) | -74.7% |
| CC(=O)Nc1cccc(NC(=O)c2cccc3cccnc23)c1 | 9.96% |
| CCCCN(C(=O)COc1ccc(C)cc1OC)c1c(N)n(CCC)c(=O)[nH]c1=O | 4.7% |
| O=C(NCCN1C(=O)S/C(=C\c2cccnc2)C1=O)c1ccc([N+](=O)[O-])s1 | 5.15% |
| CCCCCCn1nc(C(=O)N(CCOC)c2c(N)n(CCCC)c(=O)[nH]c2=O)c2ccccc2c1=O | -1.87% |
| COC(=O)c1sccc1NC(=S)Nc1ccc(C)cc1 | 13.7% |
| Cc1ccccc1Cc1ccc(Cl)nn1 | 19.4% |
| Cc1cc(-c2ccccc2)nc2[nH]n(-c3ccccc3)c(=O)c12 | -7.85% |
| O=C(CCc1nnc(C2CCCCC2)o1)NCc1ccc(F)c(F)c1 | -8.01% |
| COc1ccc(-c2cn3cccnc3n2)cc1 | 18.8% |
| NC(=O)COC(=O)c1cc(Cl)cc(Cl)c1N | 3.12% |
| CCCCc1nc2cc(C(=O)N3CCCCC3CCNC(C)=O)ccc2o1 (stereo not drawn) | 1.22% |
| O=C(Nc1ccccn1)c1cc(-c2ccc(Cl)s2)nc2ccccc12 | -7.05% |
| Cc1onc(C(=O)NN)c1C(=O)Nc1ncc(C(F)(F)F)cc1Cl | 12.6% |
| CC12COC3(C(=O)Nc4ccc(Cl)cc4)CC1CCC32C (stereo not drawn) | -37.8% |
| CC(=O)c1ccc(N2CCN(c3ccc(C(F)(F)F)cn3)CC2)cc1 | -12% |
| CCNC(=S)NNC(=O)CCc1nc2cc(Cl)ccc2n(Cc2ccccc2)c1=O | -54.7% |

| SMILES | hERG current change (%, negative = inhibition) at 10uM |
| --- | --- |
| Cn1c(CN2CCCCC2)nc2cc(NS(=O)(=O)c3ccc(F)cc3)ccc21 | -54.2% |
| Cc1cc(=O)n(C)c2ccc(S(=O)(=O)N3CCOCC3)cc12 | 9.27% |
| CC1CCCCN1CCCNC(=O)c1ccc(NC(=O)C2=CSCCO2)cc1 (stereo not drawn) | 5.4% |
| CC(C)(C)c1nc(SCC(=O)c2ccccc2)c2ccccc2n1 | 14.3% |
| Cc1ccc(C(=O)C(C)OC(=O)Cc2c[nH]c3ccccc23)cc1 (stereo not drawn) | 1.64% |
| CCN(CC(=O)Nc1c(F)cccc1F)C(=O)c1ccc(S(=O)(=O)N2CCCC2)cc1 | -4.87% |
| CC[n+]1ccc2cc(OC)c(OC)cc2c1Cc1ccc(OC)c(OC)c1.[I-] | 8.82% |
| COc1ccc(-n2c(CCC(=O)O)ccc2-c2ccccc2)cc1 | -1.38% |
| O=C(COC(=O)c1ccc(O)cc1)NC1CCCC1 | 14% |
| O=C(O)CCCNC(=O)C(c1ccccc1)c1ccccc1 | 6.52% |
| Cc1ccc(NC(=O)c2ccc(Cn3cc([N+](=O)[O-])cn3)cc2)c(C)c1 | -16.9% |
| O=C1NC2(CCCCCC2)C(=O)N1Cc1ccc(F)cc1Cl | -25.5% |
| CCOC(=O)CSc1nnc(CNc2ccc(Cl)cc2)n1Cc1ccccc1 | -21.8% |
| COc1ccc(/C=C/C(=O)NC(=S)NNC(=O)c2cccs2)cc1OC | 16.1% |
| COc1ccc(CN2CCC(C(N)=O)CC2)cc1OCc1ccccc1.O=C(O)C(=O)O | -19.1% |
| COc1ccccc1N1CC(C)C(=O)NC1=S (stereo not drawn) | 9.86% |
| Cc1ccc(S(=O)(=O)N2CCCCC2CCNC(=O)C(=O)NCc2ccccc2C)cc1 (stereo not drawn) | -0.496% |
| Cc1cccc(NC(=O)CSc2nc3ccccc3c(=O)n2C)c1 | 3.05% |
| CCCOc1cccc(C(=O)NC(=S)Nc2ccc(N3CCN(C)CC3)cc2)c1 | 1.67% |
